Data on 57 molecules can be found in PubChem BioAssay AID463173 (ICCB-Longwood Screening Facility, Harvard Medical School, 2010).

In all, about 52,000 compounds went through this assay and about 4,300 (8.3%) were called active. No stated cut-off is given here; in the data, active means survival mostly below about 52% (no sharp cut-off); inactive means mostly above about 56%. Some of the results follow.

The subject of this assay is DeltatarO mutant. The experiment in a line: growth inhibition of S. aureus wild type versus tarO mutant, primary screen, teichoic acid synthesis inhibitors, RN4220, OD600 (AID 463173). Particulars: OD600, 18 h, stronger effect = lower value, screened at 18.75 µg/mL (by protocol).
As for `O=C(NC1CC(=O)N(c2ccc(F)cc2)C1)c1cc2ccccc2o1` (configuration not stated), the survival is inactive: 124%. Under `CC(=O)c1cccc(NC(=O)CCS(=O)(=O)c2cc(Br)cc3c2N(C(=O)C2CC2)CC3)c1` stands inactive: 132%. To `CCCC(=O)N1CC(=O)Nc2ccc(Cl)cc2C1c1ccc(F)cc1` (configuration not stated) belongs inactive: 50%; to `COc1cc2c(cc1OC)-c1n[nH]c(=S)n1C(C)(C)C2`, inactive: 90%; to `Cc1ccc2c(=O)c(C(=O)NC3CCCC3)c[nH]c2c1`, inactive: 92%. To `COC(=O)C1=C(C)NC2=C(C(=O)c3ccccc32)C1c1cc2c(cc1Cl)OCO2` (configuration not stated) belongs inactive: 82%; to `O=S(=O)(Nc1cccc(-c2ccc(N3CCCCC3)nn2)c1)c1cccs1`, inactive: 79%; to `COc1ccc(OC)c(C2CC(=O)c3c([nH]c(C(=O)OCC4CCCCC4)c3C)C2)c1` (configuration not stated), inactive: 71%. On to `Cc1cccc(CCn2c(=O)c3ccccc3n(Cc3cccc(F)c3)c2=O)c1`, for which the survival is inactive: 87%. Under `CCCn1c(CCC(=O)O)ccc1-c1ccccc1` stands inactive: 91%; under `COCCn1c(SCC(=O)Nc2ccc(F)c(Cl)c2)nc2c(oc3ccccc32)c1=O`, active: 44%. Under `COc1ccc(C(=O)NCCc2sc(-c3cccc(F)c3)nc2C)cc1` stands inactive: 67%.

On to `Cc1nc2ccn(Cc3cccnc3)c(=O)c2cc1C(=O)Nc1ccc(OC(F)(F)F)cc1`, for which the survival is inactive: 98%. To `Cc1ccccc1NS(=O)(=O)c1ccc2[nH]cc(C(=O)N3CCCC3)c(=O)c2c1` belongs inactive: 80%.

Turning to `Cn1c(C(=O)NCc2ccc(F)cc2)cc2c(=O)n(C)c3ccccc3c21`, the survival was inactive: 83%. Under `NC(=O)CS(=O)(=O)c1ccc(Cl)cc1` stands inactive: 78%; under `COc1ccc(CCNC(=O)Cn2nnc(-c3ccc(C(F)(F)F)cc3)n2)cc1OC`, inactive: 95%.

Consider `CCCn1c(=O)c2sccc2n2c(CCCC(=O)N3CCN(c4ccccc4)CC3)nnc12`, for which the survival is inactive: 93%. Under `CCc1cccc(NC(=O)c2nnn(Cc3ccc(SC)cc3)c2N)c1` stands inactive: 59%.

As to `COc1cccc(N2C(=O)C(CC(=O)Nc3ccc(Cl)cc3)N(Cc3ccc4c(c3)OCO4)C2=O)c1` (configuration not stated), the survival was inactive: 45%. To `COc1ccc(N2CCN(C(=O)c3c(C)oc4ncnc(N5CCCCC5)c34)CC2)cc1` belongs inactive: 119%; to `CCOCCCNC(=O)C(c1ccccc1)N(Cc1cccs1)C(=O)c1ccc(NC(C)=O)cc1` (configuration not stated), inactive: 70%. Under `CCn1c(=O)c2sccc2n2c(CCCC(=O)N3CCN(c4ccc(OC)cc4)CC3)nnc12` stands inactive: 89%; under `O=C1CC(c2ccccc2)Cc2[nH]c(=O)c(C(=O)Nc3ccc(OC(F)(F)F)cc3)cc21` (configuration not stated), inactive: 163%. Under `Cc1cccc(N2CCN(C(=O)C3CCCN(S(=O)(=O)c4cccc5nsnc45)C3)CC2)c1C` (configuration not stated) stands inactive: 80%. For `Cc1cccc(-c2noc(CCCC(=O)NCc3ccco3)n2)c1`, the survival is active: 42%. To `COCCn1c(CCC(=O)Nc2cc(C)ccc2C)nc2cccnc21` belongs inactive: 114%; to `CCOc1ccccc1NC(=O)CCS(=O)(=O)c1cccc2nsnc12`, inactive: 112%; to `Cc1ccc(C)c(Cn2c(C(C)NC(=O)c3ccc(F)cc3)nc3ccccc32)c1` (configuration not stated), inactive: 79%. To `CCN(c1ccccc1)S(=O)(=O)c1cc(-c2onc(C)c2C)ccc1OC` belongs inactive: 79%. Consider `O=c1[nH]c2ccc(NCc3ccc(-c4cccc(Cl)c4)o3)cc2[nH]1`, for which the survival is inactive: 52%.

As for `CCOc1ccc(S(=O)(=O)N2CCN(c3cc(Cl)ccc3Cl)CC2)c2ccccc12`, the survival was inactive: 64%. Under `Cc1ccc(NC(=O)CN2C(=O)C(c3ccc(F)cc3)=NC23CCCCC3)c(C)c1` stands inactive: 63%; under `O=C(CCCCCn1c(=O)[nH]c2ccccc2c1=O)NCc1cccc(Cl)c1`, inactive: 69%; under `CCc1ccccc1NC(=O)C(CC)Sc1ncnc2c1sc1ccccc12` (configuration not stated), inactive: 89%. To `CCOc1ccccc1CNC(=O)C1CCN(S(=O)(=O)c2cccc3nonc23)CC1` belongs inactive: 88%; to `Cn1c(=O)c2c(SCC(=O)N3CCc4ccccc43)nc(-c3cccc(F)c3)nc2n(C)c1=O`, inactive: 124%. Take `O=C(Nc1ccc(Br)cc1)C1CCCN(S(=O)(=O)c2ccc(Br)s2)C1` (configuration not stated): the survival was inactive: 82%. To `Cc1cc(C)c2c(CC(=O)Nc3ccc(S(=O)(=O)N4CCCC(C)C4)cc3)coc2c1` (configuration not stated) belongs inactive: 72%; to `Cc1ccc(OCC(=O)Nc2cccc(OCc3cc(=O)n4ccccc4n3)c2)cc1C`, inactive: 96%.

With `Fc1c(F)c(Oc2ccccc2)c(F)c(F)c1Oc1ccccc1`, the survival is inactive: 100%. To `Cc1cc(Br)ccc1NC(=O)C(Cc1ccccc1)NS(=O)(=O)c1ccc(Br)s1` (configuration not stated) belongs inactive: 114%. Under `O=S(=O)(c1ccc2oc(-c3cccnc3)nc2c1)c1ccc2oc(-c3cccnc3)nc2c1` stands inactive: 64%; under `CCOc1cc(C2Nc3ccccc3-c3nnc(SCc4ccccc4)nc3O2)ccc1OC` (configuration not stated), active: 45%. For the molecule `CCC(C(=O)Nc1ccc(C(=O)OC)cc1)n1nc(-c2ccc(C)cc2)c2c(c1=O)CCCC2` (configuration not stated), the survival was inactive: 102%.

On to `O=C(Cc1ccccc1)N1CCSC1=S`, for which the survival was inactive: 104%.

With `O=C(NCc1ccc(Cl)cc1)c1ccc(CSCc2cccc(Cl)c2)o1`, the survival was inactive: 119%.

As to `O=C(Nc1ccc(Cl)cc1F)c1oc(=O)c2ccccc2c1-c1ccccc1`, the survival was inactive: 61%. Under `O=C(Cc1ccccc1)N(Cc1cccnc1)c1nc2c(F)cccc2s1` stands inactive: 83%.

For `COc1ccc(OCc2nc3ccccc3n2C(C)c2ccccc2)cc1` (configuration not stated), the survival was active: -15%.

Consider `Cc1ccnc(NS(=O)(=O)c2ccc(NC(=O)C(C)(C)Oc3ccc(Cl)cc3)cc2)n1`, for which the survival is inactive: 73%.

Take `CCOc1cccc2cc(-c3cn4c(n3)sc3cc(C)ccc34)c(=O)oc12`: the survival was active: -4%. Under `CCNC(=S)N1CCN(CCN=CC2=C(O)CC(C)(C)CC2=O)CC1` stands inactive: 64%; under `CCOc1ccccc1NC(=O)CSc1nc2c(c(=O)[nH]1)CCC2`, inactive: 101%; under `COc1cc2c(=O)c(S(=O)(=O)c3ccc(F)cc3)cn(Cc3ccccc3C)c2cc1OC`, inactive: 55%. As to `Cc1ccc(-n2cc(-c3ccccc3)c3c(NC4CCCC4)ncnc32)cc1`, the survival is inactive: 74%.

For the molecule `COc1cc(OC)c(OC)cc1CNCCSc1nnnn1-c1ccccc1`, the survival is inactive: 61%.
